The list shows a part of the results.
Test system: T1, C. trachomatis L2/434/Bu expressing GFP (CTL2-GFP)
T1 construct: L2/434/Bu GFP intracellular growth in HeLa cells
Parameters: species or system HeLa; C. trachomatis total inclusion area by high-content imaging, normalised to DMSO
Conditions: total inclusion area; 28.5 h, 10 µM; inhibitor
In short: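 High-content images of fixed, Hoechst-stained infected cultures supply inclusion area and count (growth) plus nuclei number (viability), complementing bulk GFP/resorufin fluorescence. MIC determination is unchanged from the primary assay.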

Q: Which “% of control remaining” value does the source give for O=C(O)Cc1csc(NC(=O)c2ccc(N3CCCCC3)c([N+](=O)[O-])c2)n1 [CBK296081] here?
A: The value was 106.222.

Q: How did the “% of control remaining” value turn out when Cn1ccnc1CN1CCN(Cc2nccn2C)CC1 [CBK266206C] was run?
A: Its value is 80.7393.

Q: For Cc1ncc(CO)c(/C=N/N=C/c2ccc(O)c(O)c2)c1O [CBK265075], which “% of control remaining” value is on record?
A: Its value is 94.5873.

Q: Which “% of control remaining” value does the source give for O=C(COc1ccc2ccccc2c1Br)Nc1ccc(S(=O)(=O)N2CCCC2)cc1 [CBK264135] here?
A: Its value is 122.086.

Q: With COc1cc(Cn2c(-c3ccc(O)c(OC)c3)nc3ccccc32)ccc1O [CBK291138] as the molecule, how does the “% of control remaining” value read?
A: Its value is 70.2104.

Q: With COc1ccc(CN2CCCn3c4c(c5cc(C)ccc53)CCCC42)cc1OCc1ccccc1 (stereo not drawn) [CBK262879] as the molecule, how does the “% of control remaining” value read?
A: Its value is 68.135.

Q: Which “% of control remaining” value does the source give for COc1ccc(S(=O)(=O)N(CC(=O)Nc2ccc(F)cc2)c2ccccc2)cc1 [CBK264141] here?
A: Its value is 118.851.

Q: For CC(=O)NCCCCCC(=O)Nc1ccc(C(=O)O)cc1 [CBK287241], which “% of control remaining” value is on record?
A: Its value is 122.21.

Q: O=C(c1cnccn1)N1CCN(c2nc3c(F)cccc3s2)CC1 [CBK287722] was tested. Which “% of control remaining” value did it give?
A: The value was 122.982.

Q: With O=C(CN1CCN(c2ccc(C(F)(F)F)cn2)CC1)c1ccc2c(c1)OCCO2 [CBK074700] as the molecule, how does the “% of control remaining” value read?
A: The value was 1.9676.

Q: For COc1ccccc1OCCO [CBK000949], which “% of control remaining” value is on record?
A: Its value is 101.228.

Q: For Cc1nc(=O)c(-c2ccccc2)c(C)n1CCc1c[nH]cn1 [CBK287900], which “% of control remaining” value is on record?
A: Its value is 96.6043.

Q: O=c1cc(NCCCN2CCN(Cc3ccccc3)CC2)c2ccccc2o1 [CBK011079] was tested. Which “% of control remaining” value did it give?
A: Its value is 48.8799.

Q: With COc1cc(CNC(C)(C)CO)ccc1OCc1ccc(Cl)cc1 [CBK266433C] as the molecule, how does the “% of control remaining” value read?
A: Its value is 109.196.

Q: O=C1CC2(CCN(C(=O)C3CCCC3)CC2)Oc2ccccc21 [CBK283485] was tested. Which “% of control remaining” value did it give?
A: Its value is 93.1159.

Q: For COc1cc(-c2nccnc2N2CCN(c3ccncc3)CC2)cc(OC)c1OC [CBK036847], which “% of control remaining” value is on record?
A: The value was 117.14.

Q: For COC(=O)c1c(NC(=O)C(=O)NCc2ccco2)sc2c1CCCC2 [CBK269269], which “% of control remaining” value is on record?
A: The value was 110.141.

Q: For COCCSCc1cn2cc(Br)ccc2n1 [CBK306361], which “% of control remaining” value is on record?
A: The value was 77.0014.

Q: Which “% of control remaining” value does the source give for Cc1cc(C)cc(S(=O)(=O)c2ccc3ccnc(N4CCCNCC4)c3c2)c1 [CBK036413C] here?
A: Its value is 76.4283.

Q: How did the “% of control remaining” value turn out when O=C1/C(=C/c2ccc3c(c2)OCO3)SC(=S)N1CCCC(=O)N1CCCc2ccccc21 [CBK264676] was run?
A: The value was 118.393.

Q: With NC(=O)CS(=O)(=O)c1ccc(Cl)cc1 [CBK026373] as the molecule, how does the “% of control remaining” value read?
A: The value was 30.794.

Q: With O=C(Cn1cnc2sc(-c3ccccc3)cc2c1=O)c1ccc2c(c1)OCO2 [CBK297102] as the molecule, how does the “% of control remaining” value read?
A: The value was 95.2903.

Q: How did the “% of control remaining” value turn out when COc1ccc(/C=C(\NC(C)=O)C(=O)N2CCNCC2)cc1 [CBK077408] was run?
A: The value was 90.3151.

Q: For CCc1c(C)nc2ccc(Br)cc2c1SCCC(=O)O [CBK126914], which “% of control remaining” value is on record?
A: Its value is 81.8453.

Q: Which “% of control remaining” value does the source give for Cc1ccc(CCn2cc(C)nc2C)cn1 [CBK021231] here?
A: The value was 90.738.

Q: With CCOC(=O)Nc1ccc2c(c1)N(C(=O)CCN1CCOCC1)c1ccccc1CC2 [CBK261291C] as the molecule, how does the “% of control remaining” value read?
A: Its value is 109.29.

Q: How did the “% of control remaining” value turn out when Nc1cc(Cl)cc2[nH]c(=O)c3cc(Cl)ccc3c12 [CBK017144] was run?
A: The value was 25.8002.

Q: O=C(N/N=C/c1ccc(Br)s1)c1cccc([N+](=O)[O-])c1 [CBK261354] was tested. Which “% of control remaining” value did it give?
A: Its value is 87.2561.

Q: Which “% of control remaining” value does the source give for COc1ccc(C(=O)Nc2nc(OCC(F)(F)F)cnc2/C=C\c2ccccc2)c(OC)c1 [CBK145367] here?
A: Its value is 117.4.

Q: For O=C(Nc1ccccc1)c1ccc(F)cc1-n1cnnn1 [CBK287903], which “% of control remaining” value is on record?
A: Its value is 101.193.

Q: O=C1CCC(=O)N1CCOc1nccnc1OC1CCNCC1 [CBK075084T] was tested. Which “% of control remaining” value did it give?
A: The value was 91.2887.

Q: Cn1ccnc1C1(O)CCN(C(=O)NC2CCCCC2)CC1 [CBK282275] was tested. Which “% of control remaining” value did it give?
A: The value was 75.2616.

Q: Which “% of control remaining” value does the source give for COCCNC(=O)c1cnn2c(C)c(Cc3ccccc3C)c(C)nc12 [CBK160253] here?
A: The value was 77.8852.

Q: For COc1cc(C)c(C)cc1S(=O)(=O)N1[C@@H](c2ccccc2F)C[C@@H]2NC(=O)CCC[C@H]21 [CBK286012], which “% of control remaining” value is on record?
A: Its value is 78.9145.

Q: Which “% of control remaining” value does the source give for CN1C(=O)COc2ccccc2C/C=C/C[C@@H]2[C@H]1CCCN2C(=O)Cn1ccc(=O)[nH]c1=O [CBK292093] here?
A: Its value is 121.267.

Q: CCc1ccc(OCC(=O)NC(=S)Nc2cccc3nsnc23)cc1 [CBK267173] was tested. Which “% of control remaining” value did it give?
A: The value was 99.598.

Q: For CCCc1cc(O)n(-c2nc3ccccc3[nH]2)n1 [CBK270269], which “% of control remaining” value is on record?
A: The value was 76.1059.

Q: Which “% of control remaining” value does the source give for Cn1c(NC(=O)CSc2nnc(Cc3cccc4ccccc34)o2)cc(=O)n(C)c1=O [CBK266055] here?
A: The value was 98.9224.

Q: O=C(CSc1ccc(Cl)cc1)Nc1cc(Cl)ccc1C(=O)O [CBK264217] was tested. Which “% of control remaining” value did it give?
A: The value was 112.356.

Q: O=C(N/N=C\c1cccc(OC(=O)c2cccs2)c1)c1ccc([N+](=O)[O-])cc1 [CBK262289] was tested. Which “% of control remaining” value did it give?
A: Its value is 121.523.

Q: How did the “% of control remaining” value turn out when O=C1CC(c2ccc(Cl)cc2)CC(=O)C1=CNCCN1CCN(C(=O)Nc2ccccc2)CC1 (stereo not drawn) [CBK263671] was run?
A: The value was 97.0229.

Q: For O=C(O)CCC(=O)N1N=C(c2c(-c3ccccc3)c3cc(Cl)ccc3[nH]c2=O)CC1c1ccccn1 (stereo not drawn) [CBK296106], which “% of control remaining” value is on record?
A: Its value is 153.154.

Q: How did the “% of control remaining” value turn out when CSc1nc(N)nc(SC(C(=O)O)c2ccccc2)c1C#N (stereo not drawn) [CBK267461] was run?
A: Its value is 92.3526.

Q: Which “% of control remaining” value does the source give for CCCCOc1ccc(NC(=O)NC(=O)C2CCN(CCc3ccc(Br)cc3)CC2)cc1 [CBK035096] here?
A: Its value is 99.6845.

Q: CCCN(CCC)C(=O)c1ccc(-n2nc(C(=O)OCC)c(Br)c2C)cc1 [CBK114363] was tested. Which “% of control remaining” value did it give?
A: The value was 68.9867.

Q: With c1ccc(Oc2cccc(CN3CCOCC3)c2)cc1 [CBK261870] as the molecule, how does the “% of control remaining” value read?
A: Its value is 106.659.

Q: How did the “% of control remaining” value turn out when COc1cccc(NC(=O)N[C@H]2C[C@@H](c3nc(-c4ccccn4)no3)N(C)C2)c1 [CBK288853] was run?
A: Its value is 78.4934.

Q: With O=C(NCc1ccc(F)cc1)N1CCCC(CO)C1 (stereo not drawn) [CBK156056] as the molecule, how does the “% of control remaining” value read?
A: The value was 92.1535.

Q: Which “% of control remaining” value does the source give for N#Cc1ccc(NCC(=O)Nc2ncccc2O)cc1 [CBK306413] here?
A: Its value is 114.329.

Q: Which “% of control remaining” value does the source give for CC(Oc1cccc(Cl)c1)c1nc(-c2cccs2)no1 (stereo not drawn) [CBK293984] here?
A: Its value is 68.3966.

Q: How did the “% of control remaining” value turn out when O=C(Cc1ccc(F)cc1)N1CCOC(Cn2ccnc2)C1 (stereo not drawn) [CBK282875] was run?
A: Its value is 95.069.

Reference: publication PMC12040169 (PLOS Biology, 2025)
